Among the data in PubChem BioAssay AID2202238 (Ras Initiative Chemistry Research Team, Frederick National …, 2025) are percent labeling values, retold here.

The target of this test is GTPase KRas (Homo sapiens) (UniProt P01116). In words: Covalent labelling of cysteine mutants by fragments, read by mass spectrometry (AID 2202238). The arrangement: protein at 5 µM with 500 µM competing thiol for 1.5 h. The conditions noted are these: KRAS G12D cysteine mutants, disulfide tethering, MALDI-TOF labeling, stronger effect = higher value, fragment at 500 µM.
The mark [1] stands for this setting: measured here: G60C mutant labeling.
Setting [2] is: measured here: G75C mutant labeling.
Setting [3] is: measured here: H94C mutant labeling.
The mark [4] stands for this setting: measured here: I36C mutant labeling.
Where [5] appears, read: measured here: L120C mutant labeling.
The mark [6] stands for this setting: measured here: M67C mutant labeling.
Where [7] appears, read: measured here: M72C mutant labeling.
Setting [8] is: measured here: N26C mutant labeling.
Setting [9] is: measured here: N86C mutant labeling.
Where [10] appears, read: measured here: P121C mutant labeling.
The mark [11] stands for this setting: measured here: S122C mutant labeling.
The mark [12] stands for this setting: measured here: S136C mutant labeling.

The other results are listed elsewhere or left out. The main result of the screen is listed elsewhere. These columns were measured beside it and carry no call.

UniProt P01116, sequence (P01116 whole entry, looked up, the tested form may be a part): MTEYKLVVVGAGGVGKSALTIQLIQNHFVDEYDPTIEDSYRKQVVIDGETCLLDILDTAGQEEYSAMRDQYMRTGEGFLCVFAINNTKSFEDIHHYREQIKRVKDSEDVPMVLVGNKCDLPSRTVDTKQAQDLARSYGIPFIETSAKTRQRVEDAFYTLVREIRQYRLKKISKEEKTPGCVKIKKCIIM

With `CCn1c(=O)[nH]c2cc(C(=O)NCCS)ccc2c1=O`, the percent labeling is 16.6% under setting [1]; 12.9% under setting [2]; 16.7% under setting [3]; 9.3% under setting [4]; 16.2% under setting [5]; 12% under setting [6]. Also, the percent labeling by setting is: under setting [7], 23.2%; under setting [8], 31.7%; under setting [9], 14.8%; under setting [10], 12.3%; under setting [11], 10%; under setting [12], 16.9%.
`Cc1c(C(=O)NCCS)nnn1-c1cccc2c1CCN(C)C2` yielded a percent labeling under setting [1] of 60.3%; a percent labeling under setting [2] of 36.4%; a percent labeling under setting [3] of 43.9%; a percent labeling under setting [4] of 39.1%; a percent labeling under setting [5] of 43.5%; a percent labeling under setting [6] of 43%. This compound also had a percent labeling under setting [7] of 75.6%; a percent labeling under setting [8] of 54.3%; a percent labeling under setting [9] of 32.8%; a percent labeling under setting [10] of 36.6%; a percent labeling under setting [11] of 25.9%; a percent labeling under setting [12] of 52.9%.
Compound `O=C(CCS)Nc1c(F)cccc1-n1cccn1` yielded a percent labeling under setting [2] of 14.8%; a percent labeling under setting [3] of 37.7%; a percent labeling under setting [4] of 41.4%; a percent labeling under setting [5] of 30.5%; a percent labeling under setting [6] of 35.2%; a percent labeling under setting [7] of 33.1%. The percent labeling under setting [9] is 30.4%, the percent labeling under setting [10] was determined as 36.8%, the percent labeling under setting [11] is 40.7% and the percent labeling under setting [12] was 51%.
On to `CC1(C)CCCN1C1CCN(C(=O)CCS)CC1`, for which the percent labeling reads like this: under setting [2], 15.4%; under setting [3], 33.4%; under setting [4], 43%; under setting [5], 29.4%; under setting [6], 44.1%; under setting [7], 15%. The same compound returned a percent labeling under setting [9] of 22.1%, a percent labeling under setting [10] of 29.8%, a percent labeling under setting [11] of 27% and a percent labeling under setting [12] of 54.8%.
Regarding `Cc1oc(-c2cccs2)nc1C(=O)NCCS`, the percent labeling runs as follows: under setting [1], 24.4%; under setting [2], 19%; under setting [3], 15.8%; under setting [4], 8.2%; under setting [5], 16.2%; under setting [6], 8.2%. In addition, the percent labeling worked out at 32% under setting [7]; 26.8% under setting [8]; 8.3% under setting [9]; 12.1% under setting [10]; 9.7% under setting [11]; 20.3% under setting [12].
With `O=C(CCS)N1CCC(Oc2cncc(Cl)c2)CC1`, the percent labeling under setting [2] was 17.1%; the percent labeling under setting [3] amounted to 33.7%; the percent labeling under setting [4] was found to be 37.6%; the percent labeling under setting [5] turned out to be 29%; the percent labeling under setting [6] stood at 45.1%; the percent labeling under setting [7] worked out at 32.3%. The percent labeling by setting is: under setting [9], 16.9%; under setting [10], 34.6%; under setting [11], 32.1%; under setting [12], 52.1%.
On to `O=C(CCN1C(=O)CCc2cc(F)ccc21)NCCS`, for which the percent labeling by setting is: under setting [1], 49.1%; under setting [2], 16%; under setting [3], 30.5%; under setting [4], 24%; under setting [5], 35.7%; under setting [6], 38.1%. For the same compound, the percent labeling worked out at 38.7% under setting [7]; 24.6% under setting [8]; 21.6% under setting [9]; 33.8% under setting [10]; 29.1% under setting [11]; 48.5% under setting [12].
On to `Cc1ccc(OCc2cccc(C(=O)NCCS)c2)cn1`, for which the percent labeling under setting [1] is 30.7%; the percent labeling under setting [2] is 12.1%; the percent labeling under setting [3] came out at 22.7%; the percent labeling under setting [4] worked out at 15%; the percent labeling under setting [5] was determined as 20.3%; the percent labeling under setting [6] was determined as 19.1%. Moreover, the percent labeling reads like this: under setting [7], 35.8%; under setting [8], 42%; under setting [9], 13.3%; under setting [10], 14.5%; under setting [11], 13.2%; under setting [12], 22.7%.
Turning to `Cn1cc(N2CCCC(N3CCN(C(=O)CCS)CC3)C2=O)cn1` (centres undefined), the percent labeling amounted to 13.4% under setting [2]; 22.8% under setting [3]; 30.3% under setting [4]; 26% under setting [5]; 38.3% under setting [6]; 17.5% under setting [7]. The percent labeling reads like this: under setting [9], 22.6%; under setting [10], 25.1%; under setting [11], 38%; under setting [12], 50.1%.
Turning to `CN1CCC(c2cccc(NC(=O)CCS)c2)CC1`, the percent labeling is, setting by setting: under setting [2], 19.1%; under setting [3], 51.1%; under setting [4], 46.6%; under setting [5], 35.4%; under setting [6], 50.7%; under setting [7], 49.9%. Also, the percent labeling under setting [9] was found to be 24.4%, the percent labeling under setting [10] is 31.1%, the percent labeling under setting [11] came out at 33.2% and the percent labeling under setting [12] was found to be 56.4%.
As for `CC(C(=O)N(C)CC(=O)NCCS)n1cccn1` (centres undefined), the percent labeling was found to be 19.9% under setting [1]; 8.3% under setting [2]; 25.3% under setting [3]; 18.1% under setting [4]; 35.5% under setting [5]; 26.4% under setting [6]. Further, the percent labeling under setting [7] was 9.2%; the percent labeling under setting [8] worked out at 28.2%; the percent labeling under setting [9] was 23.9%; the percent labeling under setting [10] came to 29.3%; the percent labeling under setting [11] stood at 29.2%; the percent labeling under setting [12] came out at 37%.
Consider `CCNC(=O)c1cccc(NC(=O)CCS)c1`, for which the percent labeling was 16.3% under setting [2]; 30% under setting [3]; 38.3% under setting [4]; 32.7% under setting [5]; 23.8% under setting [6]; 30.2% under setting [7]. For the same compound, the percent labeling reads like this: under setting [9], 33%; under setting [10], 31.5%; under setting [11], 37.2%; under setting [12], 48.6%.
For `O=C(NCCS)C1(O)CCC(C(F)(F)F)CC1` (centres undefined), the percent labeling was 41% under setting [1]; 19.2% under setting [2]; 36.5% under setting [3]; 23.7% under setting [4]; 41.6% under setting [5]; 30.8% under setting [6]. Further, the percent labeling under setting [7] was determined as 39.2%; the percent labeling under setting [8] was 37.3%; the percent labeling under setting [9] turned out to be 36.6%; the percent labeling under setting [10] turned out to be 32.8%; the percent labeling under setting [11] turned out to be 35.2%; the percent labeling under setting [12] came to 45%.
For `O=C(CCS)Nc1ccc2c(c1)CCC(=O)N2`, the percent labeling by setting is: under setting [2], 13.4%; under setting [3], 31%; under setting [4], 41.5%; under setting [5], 30.6%; under setting [6], 26.9%; under setting [7], 40.2%. The percent labeling is 24.9% under setting [9], 21.9% under setting [10], 26% under setting [11] and 41.6% under setting [12].
For the compound `O=C(CCS)Nc1cccc(Oc2ccccc2)c1`, the percent labeling reads like this: under setting [2], 13.6%; under setting [3], 14.6%; under setting [4], 14.3%; under setting [5], 18.6%; under setting [6], 23.5%; under setting [7], 33.3%. Besides, the percent labeling reads like this: under setting [9], 9.6%; under setting [10], 16.7%; under setting [11], 10.8%; under setting [12], 34.7%.
